# Laboratory results: the supplement of paper PMC8728848
# The other results are listed elsewhere or left out.
# B1: AAL (Agrocybe aegerita), Q6WY08 (protein)
# chain: MQGVNIYNISAGTSVDLAAPVTTGDIVTFFSSALNLNAGAGNPNNTTLNLFAENGAYLLHIAFRLQENVIIFNSRQPDGPWLVEQRVSDVANQFAGIDGKAMVTVFDHGDKYQVVINEKTVIQYTKQISGLTLSLSYNATEETSIFSTVVEAVTYTGLALEHHHHHH
# Columns and labels:
# Experiment in all cases: glycan array binding signal (z-score within array); higher = stronger binding
# Conditions in all cases: glycan notation: IUPAC condensed, linker removed
# [1] = biological target: Neu5Ac(a2-6)Gal(b1-4)GlcNAc(b1-3)Gal(b1-3)GlcNAc
# Procedure, shortened: (§1)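 Arrays were curated from the Consortium for Functional Glycomics database, 3228 in total, and kept only where the protein sequence was available. Binding is expressed as a within-array Z-score. This score was averaged across arrays of the same protein sequence at different concentrations or buffers and across linkers, and negative values can be read as non-binding.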
# [2] = biological target: Neu5Ac(a2-6)Gal(b1-4)GlcNAc(b1-3)Gal(b1-4)GlcNAc
# Procedure, shortened: as §1
# [3] = biological target: Neu5Ac(a2-6)Gal(b1-4)GlcNAc(b1-3)Gal(b1-4)GlcNAc(b1-2)Man(a1-3)[Neu5Ac(a2-6)Gal(b1-4)GlcNAc(b1-3)Gal(b1-4)GlcNAc(b1-2)Man(a1-6)]GalNAc
# Procedure, shortened: as §1
# [4] = biological target: Neu5Ac(a2-6)Gal(b1-4)GlcNAc(b1-3)Gal(b1-4)GlcNAc(b1-3)Gal(b1-4)GlcNAc
# Procedure, shortened: as §1
# [5] = biological target: Neu5Ac(a2-6)Gal(b1-4)GlcNAc(b1-3)Gal(b1-4)GlcNAc(b1-3)Gal(b1-4)GlcNAc(b1-2)Man(a1-3)[Neu5Ac(a2-6)Gal(b1-4)GlcNAc(b1-3)Gal(b1-4)GlcNAc(b1-3)Gal(b1-4)GlcNAc(b1-2)Man(a1-6)]GalNAc
# Procedure, shortened: as §1
# [6] = biological target: Neu5Ac(a2-6)Gal(b1-4)GlcNAc(b1-3)Gal(b1-4)GlcNAc(b1-3)GalNAc
# Procedure, shortened: as §1
# [7] = biological target: Neu5Ac(a2-6)Gal(b1-4)GlcNAc(b1-3)Gal(b1-4)GlcNAc(b1-3)[Neu5Ac(a2-6)Gal(b1-4)GlcNAc(b1-3)Gal(b1-4)GlcNAc(b1-6)]GalNAc
# Procedure, shortened: as §1
# [8] = biological target: Neu5Ac(a2-6)Gal(b1-4)GlcNAc(b1-3)Gal(b1-4)GlcNAc(b1-6)[Gal(b1-3)]GalNAc
# Procedure, shortened: as §1
# [9] = biological target: Neu5Ac(a2-6)Gal(b1-4)GlcNAc(b1-3)Gal(b1-4)[Fuc(a1-3)]GlcNAc(b1-3)Gal(b1-4)[Fuc(a1-3)]GlcNAc
# Procedure, shortened: as §1
# [10] = biological target: Neu5Ac(a2-6)Gal(b1-4)GlcNAc(b1-3)GalNAc
# Procedure, shortened: as §1
# [11] = biological target: Neu5Ac(a2-6)Gal(b1-4)GlcNAc(b1-3)[Neu5Ac(a2-6)Gal(b1-4)GlcNAc(b1-6)]GalNAc
# Procedure, shortened: as §1
# [12] = biological target: Neu5Ac(a2-6)Gal(b1-4)GlcNAc(b1-6)GalNAc
# Procedure, shortened: as §1
# [13] = biological target: Neu5Ac(a2-6)Gal(b1-4)GlcNAc(b1-6)[Gal(b1-3)GlcNAc(b1-3)]Gal(b1-4)Glc
# Procedure, shortened: as §1
# [14] = biological target: Neu5Ac(a2-6)Gal(b1-4)GlcNAc(b1-6)[Gal(b1-3)]GalNAc
# Procedure, shortened: as §1
# [15] = biological target: Neu5Ac(a2-6)Gal(b1-4)GlcNAc6S
# Procedure, shortened: as §1
# Neu5Ac(a2-6)GalNAc = biological target: Neu5Ac(a2-6)GalNAc
# Procedure, shortened: as §1
# [16] = biological target: Neu5Ac(a2-6)GalNAc(b1-4)GlcNAc
# Procedure, shortened: as §1
# [17] = biological target: Neu5Ac(a2-6)GalNAc(b1-4)GlcNAc6S
# Procedure, shortened: as §1
# [18] = biological target: Neu5Ac(a2-6)GlcNAc(b1-4)GlcNAc
# Procedure, shortened: as §1
# [19] = biological target: Neu5Ac(a2-6)GlcNAc(b1-4)GlcNAc(b1-4)GlcNAc
# Procedure, shortened: as §1
# Neu5Ac(a2-8)Neu5Ac = biological target: Neu5Ac(a2-8)Neu5Ac
# Procedure, shortened: as §1
# [20] = biological target: Neu5Ac(a2-8)Neu5Ac(a2-3)Gal(b1-3)GalNAc(b1-4)[Neu5Ac(a2-3)]Gal(b1-4)Glc
# Procedure, shortened: as §1
# [21] = biological target: Neu5Ac(a2-8)Neu5Ac(a2-3)Gal(b1-3)GalNAc(b1-4)[Neu5Ac(a2-8)Neu5Ac(a2-3)]Gal(b1-4)Glc
# Procedure, shortened: as §1
# [22] = biological target: Neu5Ac(a2-8)Neu5Ac(a2-3)Gal(b1-4)Glc
# Procedure, shortened: as §1
# [23] = biological target: Neu5Ac(a2-8)Neu5Ac(a2-3)Gal(b1-4)GlcNAc
# Procedure, shortened: as §1
# [24] = biological target: Neu5Ac(a2-8)Neu5Ac(a2-3)[Gal(b1-3)GalNAc(b1-4)]Gal(b1-4)Glc
# Procedure, shortened: as §1
# [25] = biological target: Neu5Ac(a2-8)Neu5Ac(a2-3)[GalNAc(b1-4)]Gal(b1-4)Glc
# Procedure, shortened: as §1
# [26] = biological target: Neu5Ac(a2-8)Neu5Ac(a2-8)Neu5Ac
# Procedure, shortened: as §1
# [27] = biological target: Neu5Ac(a2-8)Neu5Ac(a2-8)Neu5Ac(a2-3)Gal(b1-4)Glc
# Procedure, shortened: as §1
# [28] = biological target: Neu5Ac(a2-8)Neu5Ac(a2-8)Neu5Ac(a2-3)[Gal(b1-3)GalNAc(b1-4)]Gal(b1-4)Glc
# Procedure, shortened: as §1
# [29] = biological target: Neu5Ac(a2-8)Neu5Ac(a2-8)Neu5Ac(a2-3)[GalNAc(b1-4)]Gal(b1-4)Glc
# Procedure, shortened: as §1
# [30] = biological target: Neu5Ac(a2-8)Neu5Ac(a2-8)Neu5Ac(a2-8)Neu5Ac(a2-3)[GalNAc(b1-4)]Gal(b1-4)Glc
# Procedure, shortened: as §1
# [31] = biological target: Neu5Ac(a2-8)Neu5Gc(a2-3)Gal(b1-4)GlcNAc
# Procedure, shortened: as §1
# [32] = biological target: Neu5Ac(b2-6)Gal(b1-4)GlcNAc
# Procedure, shortened: as §1
# Neu5Ac(b2-6)GalNAc = biological target: Neu5Ac(b2-6)GalNAc
# Procedure, shortened: as §1
# [33] = biological target: Neu5Ac9Ac(a2-3)Gal(b1-3)GlcNAc
# Procedure, shortened: as §1
# [34] = biological target: Neu5Ac9Ac(a2-3)Gal(b1-4)GlcNAc
# Procedure, shortened: as §1
# [35] = biological target: Neu5Ac9Ac(a2-6)Gal(b1-4)GlcNAc
# Procedure, shortened: as §1
# [36] = biological target: Neu5Gc(a2-3)Gal(b1-3)GlcNAc
# Procedure, shortened: as §1
# [37] = biological target: Neu5Gc(a2-3)Gal(b1-3)[Fuc(a1-4)]GlcNAc
# Procedure, shortened: as §1
# Neu5Gc(a2-3)Gal(b1-4)Glc = biological target: Neu5Gc(a2-3)Gal(b1-4)Glc
# Procedure, shortened: as §1
# [38] = biological target: Neu5Gc(a2-3)Gal(b1-4)GlcNAc
# Procedure, shortened: as §1
# [39] = biological target: Neu5Gc(a2-3)Gal(b1-4)GlcNAc(b1-3)Gal(b1-4)GlcNAc(b1-2)Man(a1-3)[Neu5Gc(a2-3)Gal(b1-4)GlcNAc(b1-3)Gal(b1-4)GlcNAc(b1-2)Man(a1-6)]Man(b1-4)GlcNAc(b1-4)GlcNAc
# Procedure, shortened: as §1
# [40] = biological target: Neu5Gc(a2-3)Gal(b1-4)[Fuc(a1-3)]GlcNAc
# Procedure, shortened: as §1
# [41] = biological target: Neu5Gc(a2-6)Gal(b1-4)GlcNAc
# Procedure, shortened: as §1
# Neu5Gc(a2-6)GalNAc = biological target: Neu5Gc(a2-6)GalNAc
# Procedure, shortened: as §1
# [42] = biological target: Neu5Gc(a2-8)Neu5Ac(a2-3)Gal(b1-4)GlcNAc
# Procedure, shortened: as §1
# [43] = biological target: Neu5Gc(a2-8)Neu5Gc(a2-3)Gal(b1-4)GlcNAc
# Procedure, shortened: as §1
# [44] = biological target: Neu5Gc(a2-8)Neu5Gc(a2-3)Gal(b1-4)GlcNAc(b1-3)Gal(b1-4)GlcNAc
# Procedure, shortened: as §1
# [45] = biological target: Neu5Gc(a2-8)Neu5Gc(a2-6)Gal(b1-4)GlcNAc
# Procedure, shortened: as §1
# [46] = biological target: Neu5Gc(b2-6)Gal(b1-4)GlcNAc
# Procedure, shortened: as §1
binder,measurement,setting,value
B1,glycan array binding signal (z-score),[1],-0.136
same,glycan array binding signal (z-score),[2],-0.141
same,glycan array binding signal (z-score),[3],-0.148
same,glycan array binding signal (z-score),[4],-0.138
same,glycan array binding signal (z-score),[5],-0.114
same,glycan array binding signal (z-score),[6],-0.132
same,glycan array binding signal (z-score),[7],-0.138
same,glycan array binding signal (z-score),[8],-0.137
same,glycan array binding signal (z-score),[9],-0.141
same,glycan array binding signal (z-score),[10],-0.08
same,glycan array binding signal (z-score),[11],-0.162
same,glycan array binding signal (z-score),[12],-0.156
same,glycan array binding signal (z-score),[13],-0.129
same,glycan array binding signal (z-score),[14],-0.142
same,glycan array binding signal (z-score),[15],-0.142
same,glycan array binding signal (z-score),Neu5Ac(a2-6)GalNAc,-0.164
same,glycan array binding signal (z-score),[16],-0.166
same,glycan array binding signal (z-score),[17],-0.104
same,glycan array binding signal (z-score),[18],-0.154
same,glycan array binding signal (z-score),[19],-0.141
same,glycan array binding signal (z-score),Neu5Ac(a2-8)Neu5Ac,-0.146
same,glycan array binding signal (z-score),[20],0.357
same,glycan array binding signal (z-score),[21],-0.138
same,glycan array binding signal (z-score),[22],-0.095
same,glycan array binding signal (z-score),[23],0.029
same,glycan array binding signal (z-score),[24],-0.144
same,glycan array binding signal (z-score),[25],-0.108
same,glycan array binding signal (z-score),[26],-0.15
same,glycan array binding signal (z-score),[27],-0.143
same,glycan array binding signal (z-score),[28],-0.15
same,glycan array binding signal (z-score),[29],-0.147
same,glycan array binding signal (z-score),[30],-0.132
same,glycan array binding signal (z-score),[31],1.26
same,glycan array binding signal (z-score),[32],-0.154
same,glycan array binding signal (z-score),Neu5Ac(b2-6)GalNAc,-0.142
same,glycan array binding signal (z-score),[33],-0.156
same,glycan array binding signal (z-score),[34],-0.011
same,glycan array binding signal (z-score),[35],-0.157
same,glycan array binding signal (z-score),[36],-0.155
same,glycan array binding signal (z-score),[37],-0.157
same,glycan array binding signal (z-score),Neu5Gc(a2-3)Gal(b1-4)Glc,-0.106
same,glycan array binding signal (z-score),[38],-0.097
same,glycan array binding signal (z-score),[39],0.361
same,glycan array binding signal (z-score),[40],-0.151
same,glycan array binding signal (z-score),[41],-0.16
same,glycan array binding signal (z-score),Neu5Gc(a2-6)GalNAc,-0.124
same,glycan array binding signal (z-score),[42],-0.019
same,glycan array binding signal (z-score),[43],0.278
same,glycan array binding signal (z-score),[44],2.45
same,glycan array binding signal (z-score),[45],-0.145
same,glycan array binding signal (z-score),[46],-0.147
